Experimental data published in a collection of fitness landscapes (doi:10.1126/science.1257360).
Some of the results follow.

B1: PhoQ; a variant is named by its letters at X, in order, P23837 (parent)
chain: MKKLLRLFFPLSLRVRFLLATAAVVLVLSLAYGMVALIGYSVSFDKTTFRLLRGESNLFYTLAKWENNKLHVELPENIDKQSPTMTLIYDENGQLLWAQRDVPWLMKMIQPDWLKSNGFHEIEADVNDTSLLLSGDHSIQQQLQEVREDDDDAEMTHSVAVNVYPATSRMPKLTIVVVDTIPVELKSSYMVWSWFIYVLSANLLLVIPLLWVAAWWSLRPIEALAKEVRELEEHNRELLNPATTRELTSLVRNLNRLLKSERERYDKYRTTLTDLTHSLKTPLXXLQXXLRSLRSEKMSVSDAEPVMLEQISRISQQIGYYLHRASMRGGTLLSRELHPVAPLLDNLTSALNKVYQRKGVNISLDISPEISFVGEQNDFVEVMGNVLDNACKYCLEFVEISARQTDEHLYIVVEDDGPGIPLSKREVIFDRGQRVDTLRPGQGVGLAVAREITEQYEGKIVAGESMLGGARMEVIFGRQHSAPKDE

Variants of: B1
Experiment: enrichment ratio after two sorts for PhoP signalling (ratio (wild type AVST 3.29)); higher = more functional
Conditions: with PhoP (E. coli)

Variant	enrichment ratio
KRRA	≤ 0.25
SGNG	≤ 0.25
LTTI	≤ 0.25
LWGK	≤ 0.25
DWYL	≤ 0.25
PRAI	≤ 0.25
LLFY	≤ 0.25
WALT	≤ 0.25
WDIF	≤ 0.25
NMSH	≤ 0.25
MQTG	≤ 0.25
RHPQ	≤ 0.25
QIFA	≤ 0.25
SKHI	1.15
FCYS	≤ 0.25
HPNN	≤ 0.25
APDY	≤ 0.25
GPRK	≤ 0.25
TTGC	8.48
NCMA	≤ 0.25
LDKH	≤ 0.25

Variant	enrichment ratio
QDRE	≤ 0.25
NQNA	≤ 0.25
IYPP	≤ 0.25
FFYL	≤ 0.25
IHRN	≤ 0.25
WEYY	≤ 0.25
QNCK	≤ 0.25
FHEV	≤ 0.25
AHKD	≤ 0.25
KGCF	≤ 0.25
WRKT	≤ 0.25
WFSV	≤ 0.25
YHDW	≤ 0.25
TAEC	≤ 0.25
IVKS	≤ 0.25
TFQA	1.16
YFPG	≤ 0.25
INSE	≤ 0.25
LGDC	≤ 0.25
TMSW	≤ 0.25
QDDF	≤ 0.25

Variant	enrichment ratio
VTFN	≤ 0.25
SEKR	≤ 0.25
RHSL	≤ 0.25
YDHE	≤ 0.25
ETRF	≤ 0.25
MYRN	≤ 0.25
IADT	≤ 0.25
HHRD	≤ 0.25
QAVF	≤ 0.25
WNWG	≤ 0.25
FGAF	≤ 0.25
FGQK	≤ 0.25
SLPR	0.289
RYHE	≤ 0.25
FHSY	≤ 0.25
APLC	≤ 0.25
RCAF	≤ 0.25
GHHF	≤ 0.25
WPYM	≤ 0.25
YMDA	≤ 0.25
VDQI	≤ 0.25

Variant	enrichment ratio
PNGV	≤ 0.25
VSYW	≤ 0.25
FWPL	≤ 0.25
TRGK	≤ 0.25
HQPM	≤ 0.25
VCYH	≤ 0.25
QYTD	≤ 0.25
KQES	≤ 0.25
LSVN	≤ 0.25
YPEM	≤ 0.25
RDWS	≤ 0.25
GMVP	≤ 0.25
ILMH	≤ 0.25
DRRR	≤ 0.25
STCE	13.1
PFPE	≤ 0.25
NIVK	≤ 0.25
YAIA	≤ 0.25
GHYE	≤ 0.25
LEKS	≤ 0.25
AYKQ	≤ 0.25
